In all, about 310,000 compounds went through this assay and about 11,000 (3.5%) were called active. Inconclusive means that the source gave no clear call. Such entries were picked first, then a sample of the others. Calls come from the whole dose curve; as a rule, active = well fitted inhibition curve with a large enough effect; inconclusive = small, poorly fitted or top-dose-only effect, or effect the other way; inactive = flat fitted curve, though single readings scatter. Potencies of inconclusive entries are left out as doubtful fits.
experiment: VP16 counterscreen qHTS for inhibitors of ROR gamma transcriptional activity; details: Drosophila S2 Gal4-VP16 UAS-luciferase, luminescence, 20 h; activity, negative = inhibition: at 53.6 µM (top of the series);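 note: Gal4-VP16 expression switched on by copper sulfate through the metallothionein promoter; nearly all actives have a fitted effect of over 50% in size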
% is set by controls: 0 for no effect and ±100 for the full control effect; potency is the fitted concentration of half-maximal effect; tags give direction and shape of the fitted curve.

Q: Which Potency does the source give for `CC(C)CC(=O)NC(=S)Nc1cccc(NC(=O)c2ccccc2Cl)c1` here?
A: The Potency was inconclusive [inhibitor, single point].

Q: With `Cn1cnnc1SCC(=O)N1c2ccccc2-c2c(ssc2=S)C1(C)C` as the compound, how does the “activity, negative = inhibition” value read?
A: Its value is inactive: -7.83%.

Q: Which Potency does the source give for `CCCOc1ccc(-c2c(=O)n(O)c3ccccc3[n+]2[O-])cc1` here?
A: The Potency was inconclusive [inhibitor, single point].

Q: For `Cc1cccc(NC(=S)Nn2cnnc2)c1C`, which Potency is on record?
A: Its Potency is inconclusive [inhibitor, single point].

Q: Which Potency does the source give for `O=C(Nc1nnc(-c2ccc(F)cc2)o1)c1ccc(S(=O)(=O)N2CCOCC2)cc1` here?
A: Its Potency is active: 0.708 µM.

Q: For `Cc1ccc(NC(=O)CSC(N)=O)cc1Cl`, which Potency is on record?
A: Its Potency is inconclusive [inhibitor, partial curve].

Q: With `CCOC(=O)N1CCN(Cc2cc(Cl)c3cccnc3c2O)CC1` as the compound, how does the Potency read?
A: The Potency was active: 0.0891 µM.

Q: For `COc1cc(S(=O)(=O)N2CCCN(C)CC2)ccc1NC(C)=O`, which “activity, negative = inhibition” value is on record?
A: The value was inactive: -7.64%.

Q: For `Cc1ccc(N=Nc2c(N)[nH]n3c(=O)cc(-c4ccccc4)nc23)cc1`, which Potency is on record?
A: Its Potency is inconclusive [inhibitor, partial curve].

Q: With `Cc1ccc(Cn2c(Cc3ccccc3)nc3ccccc32)cc1` as the compound, how does the Potency read?
A: Its Potency is inconclusive [inhibitor, single point].

Q: For `Cn1c2ccc(F)cc2c2ncn(Cc3ccco3)c(=O)c21`, which “activity, negative = inhibition” value is on record?
A: The value was inactive: -6.44%.

Q: With `O=C(NC(=O)c1ccccc1)Nc1ccccn1` as the compound, how does the Potency read?
A: Its Potency is active: 1.58 µM.

Q: Which Potency does the source give for `O=C(Nc1cccc(-c2nc3ccccc3[nH]2)c1)c1cccc(NC(=O)c2ccco2)c1` here?
A: Its Potency is inconclusive [inhibitor, single point].

Q: With `COc1ccc(C(CC(=O)N2CCCCC2)c2c(OC)cc(OC)c3c(-c4ccccc4)cc(=O)oc23)cc1` (configuration not stated) as the compound, how does the “activity, negative = inhibition” value read?
A: Its value is inactive: 6.16%.

Q: For `CCOCC(=O)Nc1cccc(Br)c1`, which “activity, negative = inhibition” value is on record?
A: The value was inactive: -17.7%.

Q: Which Potency does the source give for `CCn1cc(/C=N\NC(=O)c2ccc3c(c2)c(C)c(C)n3Cc2ccccc2)c(C)n1` here?
A: The Potency was inconclusive [inhibitor, single point].

Q: For `Oc1c(C(Nc2ccccn2)c2ccccn2)ccc2cccnc12` (configuration not stated), which Potency is on record?
A: Its Potency is active: 2.24 µM.

Q: For `C/C(=C1/C(=O)N(c2ccc([N+](=O)[O-])cc2)N=C1c1ccccc1)N(C)C`, which Potency is on record?
A: The Potency was active: 14.1 µM.

Q: With `COc1ccc2c(C(=O)c3ccc(C)cc3)n(CCC(N)=O)[n+]([O-])c2c1` as the compound, how does the Potency read?
A: The Potency was inconclusive [inhibitor, single point].

Q: For `Cc1cc(C)c2cc(C#N)c(NCCOC(=O)c3ccccc3C)nc2c1`, which “activity, negative = inhibition” value is on record?
A: Its value is inactive: -1.45%.

Q: For `Clc1ccc(-c2n[nH]c3c2CCC3)c(Cl)c1`, which “activity, negative = inhibition” value is on record?
A: The value was inactive: -4.71%.

Q: For `CCCCNC(=O)C1CCC(CNS(=O)(=O)c2cccc3nsnc23)CC1` (configuration not stated), which “activity, negative = inhibition” value is on record?
A: The value was inactive: -7.43%.

Q: For `CCCNC(=S)N(Cc1ccccc1)Cc1nc2ccccc2c(=O)[nH]1`, which Potency is on record?
A: Its Potency is inconclusive [inhibitor, single point].

Q: Which Potency does the source give for `O=C1N/C(=N\N=C\c2ccccn2)SC1Cc1cccc(SC(F)F)c1` (configuration not stated) here?
A: Its Potency is active: 3.16 µM.

Q: With `COc1ccccc1C(=O)N/C(=C\c1cn(S(=O)(=O)N(C)C)c2ccccc12)C(=O)NCCCN1CCOCC1` as the compound, how does the Potency read?
A: The Potency was inconclusive [inhibitor, single point].

Q: With `CN(CCOc1ccccc1)S(=O)(=O)c1ccc2oc3ccccc3c2c1` as the compound, how does the Potency read?
A: The Potency was inconclusive [inhibitor, single point].

Q: For `Cc1ccc2oc(=O)n(CCCOc3ccccc3C)c2c1`, which Potency is on record?
A: Its Potency is inconclusive [activator, single point].

Q: Which Potency does the source give for `COc1ccc(N(CC(=O)Nc2ccc(OC)c(Cl)c2)S(=O)(=O)c2c(C)noc2C)cc1` here?
A: The Potency was inconclusive [inhibitor, single point].

Q: With `CC(=O)c1ccc(NC(=O)c2ccc(NC(=O)CCS(=O)(=O)c3cccs3)cc2)cc1` as the compound, how does the Potency read?
A: Its Potency is inconclusive [inhibitor, single point].

Q: With `Cc1nc(-c2ccc(S(=O)(=O)NCc3ccccn3)s2)cs1` as the compound, how does the Potency read?
A: The Potency was inconclusive [inhibitor, single point].

Q: Which “activity, negative = inhibition” value does the source give for `CCCCCSc1nc(N2CCOCC2)c2c(c1C#N)CC(C)(C)OC2` here?
A: The value was inactive: -11.6%.

Q: With `C=CCn1c(SCc2csc(C)n2)nc2sc3c(c2c1=O)CCC(C)C3` (configuration not stated) as the compound, how does the Potency read?
A: Its Potency is inconclusive [inhibitor, single point].

Q: For `O=C(CCCc1cccs1)Nc1nc2c(s1)CCCC2`, which Potency is on record?
A: The Potency was inconclusive [inhibitor, single point].

Q: Which Potency does the source give for `S=c1[nH]nc(-c2ccc(Cl)cc2)n1Cc1ccccc1` here?
A: The Potency was active: 2.82 µM.

Q: With `CC1=NN(C(=S)Nc2ccccc2)C(c2ccccc2)C1` (configuration not stated) as the compound, how does the Potency read?
A: The Potency was inconclusive [inhibitor, partial curve].

Q: With `CC(=O)Oc1ccc(-c2ccc(C(=O)OCC(=O)N(C)CC(=O)Nc3ccccc3Cl)cc2)cc1` as the compound, how does the Potency read?
A: Its Potency is inconclusive [inhibitor, single point].

Q: For `CN(C)S(=O)(=O)N1CCC(Oc2cccc(C(=O)NC3CCCCC3)c2)CC1`, which Potency is on record?
A: Its Potency is inconclusive [inhibitor, single point].

Q: For `O=C(Cc1ccccc1)NC(NC(=S)Nc1cc(Cl)ccc1Cl)C(Cl)(Cl)Cl` (configuration not stated), which Potency is on record?
A: The Potency was inconclusive [inhibitor, single point].

Q: Which Potency does the source give for `O=C(CSCc1nc2ccccc2[nH]1)N1CCN(c2ccc(F)cc2)CC1` here?
A: The Potency was inconclusive [inhibitor, single point].

Q: Which Potency does the source give for `COc1cccc(/C=N/NC(=O)c2ccc(=O)n(C)c2)c1O` here?
A: Its Potency is active: 3.16 µM.

Q: Which Potency does the source give for `O=C(NCc1ccccc1)c1nc[nH]c1C(=O)NCc1ccccc1` here?
A: Its Potency is inconclusive [activator, partial curve].

Q: Which Potency does the source give for `CCn1nc2cc(C(=O)NCC34CC5CC(CC(C5)C3)C4)ccc2c1OC` here?
A: The Potency was inconclusive [inhibitor, single point].

Q: For `N#Cc1nc(COc2ccc(-c3ccccc3)cc2)oc1NCCCN1CCOCC1`, which “activity, negative = inhibition” value is on record?
A: The value was inactive: 6.6%.

Q: Which Potency does the source give for `COc1cccc(Nc2nc(NCCO)c3ccccc3n2)c1` here?
A: The Potency was inconclusive [inhibitor, single point].

Q: With `COc1ccc(C(=O)NC(=S)NC(C)C)cc1Br` as the compound, how does the Potency read?
A: Its Potency is active: 11.2 µM.

Q: For `COc1cccc(CNC(=O)CSCc2cnn(-c3ccccc3)c2-n2cccc2)c1OC`, which “activity, negative = inhibition” value is on record?
A: Its value is inactive: -2.62%.

Q: With `COc1ccc(-c2nnc(SCC(=O)N3CCOCC3)o2)cc1OC` as the compound, how does the Potency read?
A: Its Potency is inconclusive [activator, partial curve].

Q: For `Cc1nc(C)c(-c2csc(Nc3cccnc3)n2)s1`, which “activity, negative = inhibition” value is on record?
A: Its value is inactive: -15.8%.

Q: With `CCOc1ccccc1-c1nnc2n1N=C(c1c(OC)cccc1OC)CS2` as the compound, how does the “activity, negative = inhibition” value read?
A: The value was inactive: 5.63%.

Q: With `C#CC(C)(C)NC(=O)c1ccc(-c2ccccc2F)cc1` as the compound, how does the Potency read?
A: The Potency was inconclusive [activator, partial curve].

Q: With `O=C(Nc1ccc2oc(-c3ccncc3)nc2c1)c1ccccc1` as the compound, how does the activity, negative = inhibition read?
A: Its activity, negative = inhibition is inactive: -5.02% [at 10 µM].

Q: Which Potency does the source give for `COc1ccc(-c2cc3c(=O)n(CC(=O)N4CCN(C)CC4)ncn3n2)cc1` here?
A: The Potency was inconclusive [inhibitor, single point].

Q: For `Cc1ccc(C(=O)NC(=S)Nc2ccc(N3CCOCC3)cc2)cc1C`, which Potency is on record?
A: The Potency was inconclusive [inhibitor, partial curve].

Q: With `CCc1nc(SCC(=O)Nc2sc(C)c(C)c2C(=O)OC)c2ccccc2n1` as the compound, how does the “activity, negative = inhibition” value read?
A: The value was inactive: -0.628%.

Q: Which Potency does the source give for `Cc1ccc(/C=C2\SC(=S)N(CCCC(=O)N3CCOCC3)C2=O)cc1` here?
A: The Potency was inconclusive [inhibitor, full curve, poor fit].

Q: Which Potency does the source give for `O=C(c1ccccc1Cl)N1N=C(c2ccc(Br)cc2)CC1c1nc2ccccc2[nH]1` (configuration not stated) here?
A: The Potency was inconclusive [inhibitor, single point].

Q: With `CSc1ccccc1OCc1cc(C(=O)NC2CCOC2)no1` (configuration not stated) as the compound, how does the Potency read?
A: The Potency was inconclusive [inhibitor, single point].

Q: For `O=C(CCC1CCCC1)NNC(=O)c1cccc(Cl)c1`, which “activity, negative = inhibition” value is on record?
A: Its value is inactive: 1.53%.

Q: With `O=C(/C=C/c1ccccc1)c1ccc(NC2=NCCCS2)cc1` as the compound, how does the Potency read?
A: The Potency was inconclusive [inhibitor, single point].

Q: For `COc1ccc(Nc2nnc(SCC(=O)/C=C3/N(C)c4ccccc4C3(C)C)s2)cc1`, which Potency is on record?
A: The Potency was inconclusive [inhibitor, single point].

Q: Which Potency does the source give for `CCC(=O)OCCNc1cc(SCCC(=O)OC)c2nonc2c1[N+](=O)[O-]` here?
A: The Potency was inconclusive [inhibitor, single point].

Q: Which Potency does the source give for `Nc1nonc1-n1nnc(C(=O)N/N=C/c2ccc(OCc3ccccc3)cc2)c1CNc1ccccc1` here?
A: Its Potency is inconclusive [inhibitor, partial curve].

Q: With `O=c1cc(-c2ccccc2)c2cc3c(cc2[nH]1)OCCO3` as the compound, how does the “activity, negative = inhibition” value read?
A: The value was inactive: 13.7%.

Q: With `CN(C)C(=O)c1ccc(-c2nc(NCc3cccs3)c3ccccc3n2)cc1` as the compound, how does the “activity, negative = inhibition” value read?
A: The value was inactive: 4.04%.

Q: For `CCCCC(=O)NC(=S)Nc1ccc(NC(=O)C(C)C)c(OC)c1`, which Potency is on record?
A: Its Potency is inconclusive [inhibitor, single point].

Q: Which Potency does the source give for `CCOC(=O)Cc1csc(N/N=C/c2ccc(C(F)(F)F)cc2)n1` here?
A: The Potency was inconclusive [inhibitor, partial curve].

Q: For `NC(=S)N/N=C/c1ccc2cccc(OCc3ccccc3)c2n1`, which Potency is on record?
A: The Potency was inconclusive [inhibitor, single point].

Q: With `CCOC(=O)c1ccc(N=c2ssnc2Cl)cc1` as the compound, how does the Potency read?
A: Its Potency is inconclusive [inhibitor, single point].

Q: For `OC1(C2(O)CC(c3ccccc3)ON2)CCCCC1` (configuration not stated), which “activity, negative = inhibition” value is on record?
A: The value was inactive: 11.5%.

Q: With `N#CCSc1nnc(COc2cccc3ccccc23)n1-c1cccc(Cl)c1` as the compound, how does the Potency read?
A: Its Potency is inconclusive [inhibitor, single point].

Q: For `CCc1ccc(OC)c(S(=O)(=O)NCCOc2ccccc2)c1`, which Potency is on record?
A: Its Potency is inconclusive [inhibitor, single point].

Q: With `COc1cccc(N2CCN(S(=O)(=O)c3ccc4c(c3)NC(=O)C(C)C(=O)N4)CC2)c1` (configuration not stated) as the compound, how does the Potency read?
A: Its Potency is inconclusive [inhibitor, full curve].

From PubChem BioAssay AID2546 (National Center for Advancing Translational Sciences (NCATS), 2010)
